# From the supplement of paper PMC8728848
# The list shows a part of the results.
# B1: SSR2 (Sclerotium rolfsii) (protein)
# chain: MVYKITVRVYQTNPDAFFHPVEKTVWKYANGGTWSITDDQHVLTMGGSGTSGTLRFHADNGESFTATFGVHNYKRWCDIVTNLAADETGMVINQQYYSQKNREEARERQLSNYQVKNAKGRNFQIVYTEAEGNDLHANLIIG
# Columns and labels:
# Experiment in all cases: glycan array binding signal (z-score within array); higher = stronger binding
# Details in all cases: glycan notation: IUPAC condensed, linker removed
# [1] = biological target: Neu5Ac(a2-3)Gal6S(b1-4)[Fuc(a1-3)]GlcNAc
# Method in brief: (§1)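 Glycan array data were curated from 3228 arrays in the Consortium for Functional Glycomics database and kept only where the protein sequence was available. Glycan names were converted to IUPAC-condensed notation, and columns mapping to the same glycan were averaged. The binding signal is a within-array Z-score, averaged across arrays of the same protein sequence at different concentrations or buffers and across linkers. Negative Z-scores can be read as non-binding.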
# Neu5Ac(a2-3)GalNAc = biological target: Neu5Ac(a2-3)GalNAc
# Method in brief: as §1
# [2] = biological target: Neu5Ac(a2-3)GalNAc(b1-4)GlcNAc
# Method in brief: as §1
# [3] = biological target: Neu5Ac(a2-3)[GalNAc(b1-4)]Gal(b1-4)Glc
# Method in brief: as §1
# [4] = biological target: Neu5Ac(a2-3)[GalNAc(b1-4)]Gal(b1-4)GlcNAc
# Method in brief: as §1
# [5] = biological target: Neu5Ac(a2-3)[GalNAc(b1-4)]Gal(b1-4)GlcNAc(b1-3)GalNAc
# Method in brief: as §1
# [6] = biological target: Neu5Ac(a2-3)[Neu5Ac(a2-6)]GalNAc
# Method in brief: as §1
# Neu5Ac(a2-6)Gal = biological target: Neu5Ac(a2-6)Gal
# Method in brief: as §1
# [7] = biological target: Neu5Ac(a2-6)Gal(b1-3)GlcNAc(b1-3)[Gal(b1-4)GlcNAc(b1-6)]Gal(b1-4)Glc
# Method in brief: as §1
# Neu5Ac(a2-6)Gal(b1-4)Glc = biological target: Neu5Ac(a2-6)Gal(b1-4)Glc
# Method in brief: as §1
# [8] = biological target: Neu5Ac(a2-6)Gal(b1-4)GlcNAc
# Method in brief: as §1
# [9] = biological target: Neu5Ac(a2-6)Gal(b1-4)GlcNAc(b1-2)Man
# Method in brief: as §1
# [10] = biological target: Neu5Ac(a2-6)Gal(b1-4)GlcNAc(b1-2)Man(a1-3)Man(b1-4)GlcNAc(b1-4)GlcNAc
# Method in brief: as §1
# [11] = biological target: Neu5Ac(a2-6)Gal(b1-4)GlcNAc(b1-2)Man(a1-3)[Gal(b1-4)GlcNAc(b1-2)Man(a1-6)]Man(b1-4)GlcNAc(b1-4)GlcNAc
# Method in brief: as §1
# [12] = biological target: Neu5Ac(a2-6)Gal(b1-4)GlcNAc(b1-2)Man(a1-3)[GlcNAc(b1-2)Man(a1-6)]Man(b1-4)GlcNAc(b1-4)GlcNAc
# Method in brief: as §1
# [13] = biological target: Neu5Ac(a2-6)Gal(b1-4)GlcNAc(b1-2)Man(a1-3)[GlcNAc(b1-4)][Neu5Ac(a2-6)Gal(b1-4)GlcNAc(b1-2)Man(a1-6)]Man(b1-4)GlcNAc(b1-4)GlcNAc
# Method in brief: as §1
# [14] = biological target: Neu5Ac(a2-6)Gal(b1-4)GlcNAc(b1-2)Man(a1-3)[Man(a1-6)]Man(b1-4)GlcNAc(b1-4)GlcNAc
# Method in brief: as §1
# [15] = biological target: Neu5Ac(a2-6)Gal(b1-4)GlcNAc(b1-2)Man(a1-3)[Neu5Ac(a2-3)Gal(b1-4)GlcNAc(b1-2)Man(a1-6)]Man(b1-4)GlcNAc(b1-4)GlcNAc
# Method in brief: as §1
# [16] = biological target: Neu5Ac(a2-6)Gal(b1-4)GlcNAc(b1-2)Man(a1-3)[Neu5Ac(a2-6)Gal(b1-4)GlcNAc(b1-2)Man(a1-6)]Man(b1-4)GlcNAc(b1-4)GlcNAc
# Method in brief: as §1
# [17] = biological target: Neu5Ac(a2-6)Gal(b1-4)GlcNAc(b1-2)Man(a1-3)[Neu5Ac(a2-6)Gal(b1-4)GlcNAc(b1-2)Man(a1-6)]Man(b1-4)GlcNAc(b1-4)[Fuc(a1-6)]GlcNAc
# Method in brief: as §1
# [18] = biological target: Neu5Ac(a2-6)Gal(b1-4)GlcNAc(b1-2)Man(a1-6)Man(b1-4)GlcNAc(b1-4)GlcNAc
# Method in brief: as §1
# [19] = biological target: Neu5Ac(a2-6)Gal(b1-4)GlcNAc(b1-2)Man(a1-6)[Gal(b1-4)GlcNAc(b1-2)Man(a1-3)]Man(b1-4)GlcNAc(b1-4)GlcNAc
# Method in brief: as §1
# [20] = biological target: Neu5Ac(a2-6)Gal(b1-4)GlcNAc(b1-2)Man(a1-6)[GlcNAc(b1-2)Man(a1-3)]Man(b1-4)GlcNAc(b1-4)GlcNAc
# Method in brief: as §1
# [21] = biological target: Neu5Ac(a2-6)Gal(b1-4)GlcNAc(b1-2)Man(a1-6)[Man(a1-3)]Man(b1-4)GlcNAc(b1-4)GlcNAc
# Method in brief: as §1
# [22] = biological target: Neu5Ac(a2-6)Gal(b1-4)GlcNAc(b1-2)[Neu5Ac(a2-6)Gal(b1-4)GlcNAc(b1-4)]Man(a1-3)[GlcNAc(b1-4)][Neu5Ac(a2-6)Gal(b1-4)GlcNAc(b1-2)[Neu5Ac(a2-6)Gal(b1-4)GlcNAc(b1-6)]Man(a1-6)]Man(b1-4)GlcNAc(b1-4)GlcNAc
# Method in brief: as §1
# [23] = biological target: Neu5Ac(a2-6)Gal(b1-4)GlcNAc(b1-2)[Neu5Ac(a2-6)Gal(b1-4)GlcNAc(b1-4)]Man(a1-3)[GlcNAc(b1-4)][Neu5Ac(a2-6)Gal(b1-4)GlcNAc(b1-4)Man(a1-6)]Man(b1-4)GlcNAc(b1-4)GlcNAc
# Method in brief: as §1
# [24] = biological target: Neu5Ac(a2-6)Gal(b1-4)GlcNAc(b1-2)[Neu5Ac(a2-6)Gal(b1-4)GlcNAc(b1-6)]Man(a1-6)[Neu5Ac(a2-6)Gal(b1-4)GlcNAc(b1-2)Man(a1-3)][GlcNAc(b1-4)]Man(b1-4)GlcNAc(b1-4)GlcNAc
# Method in brief: as §1
# [25] = biological target: Neu5Ac(a2-6)Gal(b1-4)GlcNAc(b1-3)Gal(b1-3)GlcNAc
# Method in brief: as §1
# [26] = biological target: Neu5Ac(a2-6)Gal(b1-4)GlcNAc(b1-3)Gal(b1-4)GlcNAc
# Method in brief: as §1
# [27] = biological target: Neu5Ac(a2-6)Gal(b1-4)GlcNAc(b1-3)Gal(b1-4)GlcNAc(b1-2)Man(a1-3)[Neu5Ac(a2-6)Gal(b1-4)GlcNAc(b1-3)Gal(b1-4)GlcNAc(b1-2)Man(a1-6)]GalNAc
# Method in brief: as §1
# [28] = biological target: Neu5Ac(a2-6)Gal(b1-4)GlcNAc(b1-3)Gal(b1-4)GlcNAc(b1-3)Gal(b1-4)GlcNAc
# Method in brief: as §1
# [29] = biological target: Neu5Ac(a2-6)Gal(b1-4)GlcNAc(b1-3)Gal(b1-4)GlcNAc(b1-3)Gal(b1-4)GlcNAc(b1-2)Man(a1-3)[Neu5Ac(a2-6)Gal(b1-4)GlcNAc(b1-3)Gal(b1-4)GlcNAc(b1-3)Gal(b1-4)GlcNAc(b1-2)Man(a1-6)]GalNAc
# Method in brief: as §1
# [30] = biological target: Neu5Ac(a2-6)Gal(b1-4)GlcNAc(b1-3)Gal(b1-4)GlcNAc(b1-3)GalNAc
# Method in brief: as §1
# [31] = biological target: Neu5Ac(a2-6)Gal(b1-4)GlcNAc(b1-3)Gal(b1-4)GlcNAc(b1-3)[Neu5Ac(a2-6)Gal(b1-4)GlcNAc(b1-3)Gal(b1-4)GlcNAc(b1-6)]GalNAc
# Method in brief: as §1
# [32] = biological target: Neu5Ac(a2-6)Gal(b1-4)GlcNAc(b1-3)Gal(b1-4)GlcNAc(b1-6)[Gal(b1-3)]GalNAc
# Method in brief: as §1
# [33] = biological target: Neu5Ac(a2-6)Gal(b1-4)GlcNAc(b1-3)Gal(b1-4)[Fuc(a1-3)]GlcNAc(b1-3)Gal(b1-4)[Fuc(a1-3)]GlcNAc
# Method in brief: as §1
# [34] = biological target: Neu5Ac(a2-6)Gal(b1-4)GlcNAc(b1-3)GalNAc
# Method in brief: as §1
# [35] = biological target: Neu5Ac(a2-6)Gal(b1-4)GlcNAc(b1-3)[Neu5Ac(a2-6)Gal(b1-4)GlcNAc(b1-6)]GalNAc
# Method in brief: as §1
# [36] = biological target: Neu5Ac(a2-6)Gal(b1-4)GlcNAc(b1-6)GalNAc
# Method in brief: as §1
binder,measurement,setting,value
B1,glycan array binding signal (z-score),[1],-0.296
same,glycan array binding signal (z-score),Neu5Ac(a2-3)GalNAc,-0.252
same,glycan array binding signal (z-score),[2],-0.279
same,glycan array binding signal (z-score),[3],-0.273
same,glycan array binding signal (z-score),[4],-0.277
same,glycan array binding signal (z-score),[5],-0.249
same,glycan array binding signal (z-score),[6],-0.286
same,glycan array binding signal (z-score),Neu5Ac(a2-6)Gal,-0.287
same,glycan array binding signal (z-score),[7],-0.271
same,glycan array binding signal (z-score),Neu5Ac(a2-6)Gal(b1-4)Glc,-0.289
same,glycan array binding signal (z-score),[8],-0.282
same,glycan array binding signal (z-score),[9],-0.269
same,glycan array binding signal (z-score),[10],-0.286
same,glycan array binding signal (z-score),[11],-0.278
same,glycan array binding signal (z-score),[12],0.385
same,glycan array binding signal (z-score),[13],-0.287
same,glycan array binding signal (z-score),[14],-0.282
same,glycan array binding signal (z-score),[15],-0.289
same,glycan array binding signal (z-score),[16],-0.302
same,glycan array binding signal (z-score),[17],-0.287
same,glycan array binding signal (z-score),[18],-0.283
same,glycan array binding signal (z-score),[19],-0.282
same,glycan array binding signal (z-score),[20],1.93
same,glycan array binding signal (z-score),[21],-0.288
same,glycan array binding signal (z-score),[22],-0.284
same,glycan array binding signal (z-score),[23],-0.27
same,glycan array binding signal (z-score),[24],-0.273
same,glycan array binding signal (z-score),[25],-0.286
same,glycan array binding signal (z-score),[26],-0.288
same,glycan array binding signal (z-score),[27],-0.289
same,glycan array binding signal (z-score),[28],-0.298
same,glycan array binding signal (z-score),[29],-0.199
same,glycan array binding signal (z-score),[30],-0.283
same,glycan array binding signal (z-score),[31],-0.223
same,glycan array binding signal (z-score),[32],0.175
same,glycan array binding signal (z-score),[33],-0.282
same,glycan array binding signal (z-score),[34],-0.24
same,glycan array binding signal (z-score),[35],-0.281
same,glycan array binding signal (z-score),[36],-0.259
